The other results are listed elsewhere or left out. At the low end of the ranking the order means little.

For the experiment, the target named is T1, GST-Rok-C97-191 (UniProt O34857).
T1 sequence: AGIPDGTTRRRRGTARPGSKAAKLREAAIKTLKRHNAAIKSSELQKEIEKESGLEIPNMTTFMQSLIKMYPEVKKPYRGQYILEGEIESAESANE
Kind of experiment: protein binding microarray.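 Also: rank score from −0.5 (least bound) to 0.5 (best bound).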 Particulars: Rok is a gene silencer of Bacillus subtilis; high values mean tight binding; most listed sequences are background and not binding sites; double strand, one strand shown.
CAAGACTA came in with a binding signal of 0.186 E-score. The figure for ACATGAAA is 0.118 E-score; for GATAACTA it is 0.29 E-score. The sequence CTGTATTA displayed a binding signal of 0.261 E-score. The figure for TGATGAAA is 0.105 E-score. With GGTGACCA, the binding signal is -0.136 E-score. The figure for CTAGGTCC is -0.126 E-score. ATTTAAGG showed a binding signal of 0.0954 E-score. The figure for ACAGTATC is 0.163 E-score; for AATCTCTC it is 0.0357 E-score; for AACGCTCC it is -0.0965 E-score.

CATGTTAC yielded a binding signal of 0.15 E-score. The figure for ACCACAAA is 0.0876 E-score; for CTTGACCC it is -0.314 E-score. As to ACCATTAC, the binding signal was 0.268 E-score. Turning to CCGGTATA, the binding signal amounted to 0.117 E-score. The same measure for CGCATCGC: -0.099 E-score. The figure for AGGCCCCA is -0.193 E-score; for GCTGATGA it is 0.00557 E-score; for ATGTCGTG it is 0.00732 E-score. The figure for CAAAGGGA is -0.294 E-score; for AAGCGGCG it is -0.351 E-score; for ACACGCCA it is -0.111 E-score. In the case of CCGAGCGG, the binding signal was -0.183 E-score. The figure for AAGAAAGT is 0.236 E-score. The same measure for ACAAGATG: 0.0122 E-score; for GAGGGCCA: -0.231 E-score; for TGAGGTAA: 0.126 E-score.

For the sequence TAACGCGA, the binding signal was determined as 0.00679 E-score. The same measure for GGAAACCA: -0.105 E-score; for ATGCAATG: 0.0885 E-score; for GCAAAACA: -0.0122 E-score. Regarding CATGAGGG, the binding signal is -0.283 E-score. The same measure for CTGAAAAA: -0.0833 E-score; for ACGTTGTC: -0.0888 E-score; for ATCAGACA: 0.00352 E-score. For CTCAATTA, the binding signal turned out to be 0.037 E-score. Turning to CTGCGGGA, the binding signal is -0.268 E-score. Turning to AAAGCACT, the binding signal was -0.0789 E-score. The figure for AGCACTTC is -0.113 E-score; for CATGCGAC it is -0.132 E-score; for CCCCCTCC it is -0.428 E-score. The same measure for AAAAATCC: 0.06 E-score. Consider AGAGGGCT, for which the binding signal is -0.21 E-score. Consider CATCCTGG, for which the binding signal was -0.0651 E-score. Sequence AAGAATGT displayed a binding signal of 0.101 E-score. The figure for TGAGCACA is -0.269 E-score; for GGAGGTTA it is -0.0839 E-score; for CATGCATC it is -0.0333 E-score.

With ACAAGGCA, the binding signal was -0.136 E-score. The figure for CTGGCTTC is -0.157 E-score; for GCAGCAAA it is -0.119 E-score. In the case of ACCCTTAC, the binding signal is -0.106 E-score. With AAATCGAA, the binding signal amounted to 0.224 E-score.

As to AGGTTGCC, the binding signal was -0.157 E-score. The same measure for AACCACGT: 0.129 E-score. The same measure for AGGTCCTG: -0.0134 E-score; for ACCCATAA: 0.201 E-score. The figure for CAAATGCG is 0.0371 E-score; for GTTGCATA it is -0.00101 E-score. Take CACCATCG: the binding signal is -0.112 E-score.

Consider AGGAGACC, for which the binding signal is -0.161 E-score.

ACGTGAAC came in with a binding signal of 0.0345 E-score. The figure for GCAATCTA is 0.307 E-score; for GCCGGTCA it is -0.0374 E-score. Take CCGCGTCG: the binding signal is -0.056 E-score.

Regarding AACCCCGA, the binding signal was -0.174 E-score. The figure for ATACGAAA is 0.0585 E-score. For ACCTATCA, the binding signal worked out at 0.0914 E-score. The same measure for ACTAAAAC: 0.26 E-score; for CAGTGTAA: 0.000763 E-score; for ATATAATG: 0.3 E-score. The figure for ACTATTCC is 0.137 E-score; for CTACCCAG it is 0.15 E-score.

Sequence AGAAAAGA showed a binding signal of 0.244 E-score.

On to CAGCATCC, for which the binding signal was -0.0907 E-score. For the sequence ACATGCAA, the binding signal was determined as 0.163 E-score. The same measure for CGATTTAA: 0.0832 E-score. Turning to CCAATCCA, the binding signal is -0.115 E-score. For CCTTAGCG, the binding signal is -0.12 E-score.

For the sequence CTTGGAAA, the binding signal is -0.154 E-score. The same measure for AACAACAC: -0.0729 E-score.

For CCCCGATC, the binding signal is -0.273 E-score.

The sequence AGAATTAC returned a binding signal of 0.217 E-score. The figure for CTAAGCCC is -0.256 E-score; for ATCAGACG it is -0.0325 E-score. In the case of AGGACAGC, the binding signal is -0.258 E-score.

In the case of CGCGGTTA, the binding signal was -0.143 E-score.

Turning to ACGCCCCA, the binding signal is -0.283 E-score. For the sequence GTTTGTCA, the binding signal was found to be 0.0023 E-score. The figure for AATGGCTG is -0.119 E-score. The figure for GGGCCCAA is -0.237 E-score; for CGCAGGAA it is -0.0886 E-score. Take CCTAGCCG: the binding signal is -0.252 E-score.

On to GAAAGTGA, for which the binding signal was 0.125 E-score. As for CGTGCGTC, the binding signal is -0.0938 E-score. The figure for AAACGCGA is -0.156 E-score. Consider AACCCAGT, for which the binding signal stood at 0.0667 E-score.

The sequence GACAGGTA registered a binding signal of 0.0835 E-score.

For AATGTTGA, the binding signal was -0.106 E-score. The same measure for CGCTACGC: -0.103 E-score; for CTGAATAC: 0.101 E-score.

Regarding GCGGAGAA, the binding signal is -0.133 E-score. The figure for AGCAAAAG is -0.137 E-score; for AGCTTATA it is 0.215 E-score; for CCGCGCCG it is -0.245 E-score. The figure for AAACGAGT is 0.00967 E-score; for ACCATTCG it is 0.00667 E-score; for TAGCAATA it is 0.166 E-score. On to ACGCAGCA, for which the binding signal was -0.167 E-score.

In the case of CCGTCAGA, the binding signal is -0.151 E-score. The figure for AATAAGGC is 0.113 E-score; for CCCCCTCG it is -0.425 E-score; for CCGGGGTA it is -0.0747 E-score. The same measure for CAAGAAAC: 0.224 E-score; for ACCGGAGG: -0.0402 E-score; for ACAGATGG: 0.00706 E-score. The same measure for ACTCCTTG: -0.133 E-score.

Take CAACCGGC: the binding signal is -0.118 E-score. The figure for ACCAGTAA is -0.118 E-score. The figure for AGCTTCTC is 0.00428 E-score.

Sequence CCTGGGTA showed a binding signal of 0.0135 E-score.

Turning to GGCACCCC, the binding signal is -0.363 E-score. The figure for ATACCTGC is 0.212 E-score; for GGTCACCA it is -0.176 E-score; for TGTCTCAA it is -0.0115 E-score. The same measure for ACCACTTA: 0.228 E-score; for ATATGGGG: 0.0207 E-score. The same measure for AATGCTTA: 0.084 E-score.

With GGCCCACA, the binding signal was -0.15 E-score. Regarding CACTACGC, the binding signal was -0.0311 E-score. For the sequence CGCTCTAG, the binding signal is -0.143 E-score. The same measure for GATGTCGA: 0.0109 E-score; for AGACGCGC: -0.0811 E-score; for CTTTATTC: -0.0247 E-score. The figure for CGTCCTTC is -0.169 E-score. The figure for CAGCCAAG is -0.197 E-score; for CACCAAGA it is 0.0142 E-score; for AACCCTGG it is -0.132 E-score.

CCTACTAA: the binding signal was found to be 0.101 E-score.

On to CACCCCCG, for which the binding signal is -0.18 E-score. For the sequence CCAACGGC, the binding signal is -0.264 E-score. For GCGCAATA, the binding signal came to 0.0439 E-score. The figure for AGCTCCAC is 0.0579 E-score.

For GCTTAAAC, the binding signal was -0.0162 E-score. The same measure for AAACTCCG: 0.115 E-score; for ATACACTC: 0.135 E-score; for CGGGTGAG: -0.159 E-score. The same measure for CCGGTAGA: 0.112 E-score; for ACGTCAGT: -0.175 E-score; for CATGGCCC: -0.222 E-score. The same measure for CATTTCAG: -0.0928 E-score; for AAGTGGAG: -0.272 E-score; for AAAGTCGA: -0.0221 E-score. For TCGCTGAA, the binding signal is -0.142 E-score. The figure for AGAAGCGC is 0.0435 E-score. AGGTTTAC: the binding signal is 0.0337 E-score. The same measure for AGGAAGGG: -0.174 E-score. The figure for ACGAGGGC is -0.296 E-score. The same measure for AATCTTCG: 0.0127 E-score. AGTGGGGA: the binding signal was -0.292 E-score. The figure for CATCACAG is -0.0211 E-score; for AGTAGATG it is 0.29 E-score.

Turning to CACGAAGC, the binding signal is -0.104 E-score.

For the sequence CTTGGGTA, the binding signal turned out to be 0.0227 E-score. The figure for AATATACT is 0.367 E-score; for CGTTATGC it is -0.0427 E-score; for GTCCACTA it is 0.00191 E-score. The figure for CTTTTTGC is -0.0956 E-score; for CTTCAGAC it is -0.188 E-score; for TAGGTCAA it is 0.0924 E-score. Sequence GGATTAAA had a binding signal of 0.0951 E-score.

The values are drawn from paper PMC6212790.
